Assay [1] concerns the target ZAP-L-FL (FLAG-tagged ZAP-L) (human) (UniProt Q7Z2W4). The assay is described as follows: co-IP; ZAP-L-FL cotransfected with tagged test proteins in 293T (or endogenous MOV10); IP on α-FLAG agarose in the presence or absence of RNase (legend: 50 μg/ml; methods: 25 μg/ml RNase HC and 25 μg/ml RNaseA); Western blot. On the technique in general: A western blot detects proteins with antibodies after separation by electrophoresis.

The chains behind the UniProt entries cited, without tags or fusion partners.
UniProt Q7Z2W4: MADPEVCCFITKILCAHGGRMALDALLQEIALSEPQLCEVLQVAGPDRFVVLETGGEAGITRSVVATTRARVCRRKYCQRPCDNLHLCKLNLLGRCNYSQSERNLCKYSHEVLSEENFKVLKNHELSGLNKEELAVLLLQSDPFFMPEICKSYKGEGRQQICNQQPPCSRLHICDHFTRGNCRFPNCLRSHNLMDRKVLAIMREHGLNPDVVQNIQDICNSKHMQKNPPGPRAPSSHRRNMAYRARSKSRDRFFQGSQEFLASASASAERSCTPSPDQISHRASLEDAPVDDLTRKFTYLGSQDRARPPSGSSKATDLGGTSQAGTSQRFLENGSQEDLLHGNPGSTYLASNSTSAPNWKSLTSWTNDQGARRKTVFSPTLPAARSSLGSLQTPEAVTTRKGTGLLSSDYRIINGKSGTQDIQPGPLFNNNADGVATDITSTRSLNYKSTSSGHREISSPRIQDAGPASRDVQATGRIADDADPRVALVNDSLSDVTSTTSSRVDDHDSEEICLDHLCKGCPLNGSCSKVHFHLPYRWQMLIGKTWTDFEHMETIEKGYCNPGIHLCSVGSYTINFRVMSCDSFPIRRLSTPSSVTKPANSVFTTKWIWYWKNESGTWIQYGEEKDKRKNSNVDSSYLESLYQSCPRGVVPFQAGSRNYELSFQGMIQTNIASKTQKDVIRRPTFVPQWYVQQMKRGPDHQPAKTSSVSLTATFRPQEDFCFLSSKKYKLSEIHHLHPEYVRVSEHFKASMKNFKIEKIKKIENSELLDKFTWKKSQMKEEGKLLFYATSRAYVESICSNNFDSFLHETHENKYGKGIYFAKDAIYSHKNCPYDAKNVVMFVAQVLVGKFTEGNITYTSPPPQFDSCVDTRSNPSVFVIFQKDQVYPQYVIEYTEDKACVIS
UniProt Q9UN81: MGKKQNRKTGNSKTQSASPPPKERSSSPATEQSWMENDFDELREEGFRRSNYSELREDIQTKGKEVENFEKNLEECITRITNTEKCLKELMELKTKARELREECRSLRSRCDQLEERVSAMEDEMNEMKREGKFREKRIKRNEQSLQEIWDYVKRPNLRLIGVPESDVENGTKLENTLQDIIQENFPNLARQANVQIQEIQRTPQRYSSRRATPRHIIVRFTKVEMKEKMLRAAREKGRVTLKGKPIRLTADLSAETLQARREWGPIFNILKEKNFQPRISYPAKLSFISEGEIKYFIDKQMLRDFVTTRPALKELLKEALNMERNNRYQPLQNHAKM

Assay [2] concerns the target L1-RP ORF1p with a tandem FLAG-HA tag fused to its C-terminus, expressed from pc-L1-1FH (human) (UniProt Q9UN81). The assay can be described thus: co-IP; as a1, IP reaction in the presence of 50 μg/ml RNase.
Assay [3] has the same target. The assay is described as follows: co-IP; pc-L1-1FH (ORF1p-FLAG-HA) expressed in 293T cells with tagged test proteins or with endogenous ZAP; IP of L1 RNP complexes on α-FLAG agarose without RNase; Western blot.
The target in assay [4] is endogenous ZAP (2102Ep cells) (human (endogenous in 2102Ep)) (UniProt Q7Z2W4). The assay is described as follows: co-IP; endogenous proteins from 2102Ep cells; α-ZC3HAV1 antibody on Protein G affinity matrix, also in the presence of RNase.

The results in this text go back to paper PMC4441479.

Results are given in words; binding and its absence hold for the method and conditions named. In cells and extracts the contact can be indirect. Some entries that bind do so weakly or less than the wild type. For part of these data: Tags and fused reporters may be left off the sequences shown.

B1: MX2-V5 (protein, UniProt P20592 1-715)
chain: MSKAHKPWPYRRRSQFSSRKYLKKEMNSFQQQPPPFGTVPPQMMFPPNWQGAEKDAAFLAKDFNFLTLNNQPPPGNRSQPRAMGPENNLYSQYEQKVRPCIDLIDSLRALGVEQDLALPAIAVIGDQSSGKSSVLEALSGVALPRGSGIVTRCPLVLKLKKQPCEAWAGRISYRNTELELQDPGQVEKEIHKAQNVMAGNGRGISHELISLEITSPEVPDLTIIDLPGITRVAVDNQPRDIGLQIKALIKKYIQRQQTINLVVVPCNVDIATTEALSMAHEVDPEGDRTIGILTKPDLMDRGTEKSVMNVVRNLTYPLKKGYMIVKCRGQQEITNRLSLAEATKKEITFFQTHPYFRVLLEEGSATVPRLAERLTTELIMHIQKSLPLLEGQIRESHQKATEELRRCGADIPSQEADKMFFLIEKIKMFNQDIEKLVEGEEVVRENETRLYNKIREDFKNWVGILATNTQKVKNIIHEEVEKYEKQYRGKELLGFVNYKTFEIIVHQYIQQLVEPALSMLQKAMEIIQQAFINVAKKHFGEFFNLNQTVQSTIEDIKVKHTAKAENMIQLQFRMEQMVFCQDQIYSVVLKKVREEIFNPLGTPSQNMKLNSHFPSNESSVSSFTEIGIHLNAYFLETSKRLANQIPFIIQYFMLRENGDSLQKAMMQILQEKNRYSWLLQEQSETATKRRILKERIYRLTQARHALCQFSSKEIH
On to B1, for which the binding result in assay [1] is “binds”; in assay [2] it was “no binding (condition: with 50 μg/ml RNase)”; in assay [3], “binds”.

B2: Moloney leukemia virus 10, homolog (mouse) (protein, UniProt Q9HCE1-1 1-1003)
chain: MPSKFSCRQLREAGQCFESFLVVRGLDMETDRERLRTIYNRDFKISFGTPAPGFSSMLYGMKIANLAYVTKTRVRFFRLDRWADVRFPEKRRMKLGSDISKHHKSLLAKIFYDRAEYLHGKHGVDVEVQGPHEARDGQLLIRLDLNRKEVLTLRLRNGGTQSVTLTHLFPLCRTPQFAFYNEDQELPCPLGPGECYELHVHCKTSFVGYFPATVLWELLGPGESGSEGAGTFYIARFLAAVAHSPLAAQLKPMTPFKRTRITGNPVVTNRIEEGERPDRAKGYDLELSMALGTYYPPPRLRQLLPMLLQGTSIFTAPKEIAEIKAQLETALKWRNYEVKLRLLLHLEELQMEHDIRHYDLESVPMTWDPVDQNPRLLTLEVPGVTESRPSVLRGDHLFALLSSETHQEDPITYKGFVHKVELDRVKLSFSMSLLSRFVDGLTFKVNFTFNRQPLRVQHRALELTGRWLLWPMLFPVAPRDVPLLPSDVKLKLYDRSLESNPEQLQAMRHIVTGTTRPAPYIIFGPPGTGKTVTLVEAIKQVVKHLPKAHILACAPSNSGADLLCQRLRVHLPSSIYRLLAPSRDIRMVPEDIKPCCNWDAKKGEYVFPAKKKLQEYRVLITTLITAGRLVSAQFPIDHFTHIFIDEAGHCMEPESLVAIAGLMEVKETGDPGGQLVLAGDPRQLGPVLRSPLTQKHGLGYSLLERLLTYNSLYKKGPDGYDPQFITKLLRNYRSHPTILDIPNQLYYEGELQACADVVDRERFCRWAGLPRQGFPIIFHGVMGKDEREGNSPSFFNPEEAATVTSYLKLLLAPSSKKGKARLSPRSVGVISPYRKQVEKIRYCITKLDRELRGLDDIKDLKVGSVEEFQGQERSVILISTVRSSQSFVQLDLDFNLGFLKNPKRFNVAVTRAKALLIIVGNPLLLGHDPDWKVFLEFCKENGGYTGCPFPAKLDLQQGQNLLQGLSKLSPSTSGPHSHDYLPQEREGEGGLSLQVEPEWRNEL
As to B2, the binding entry in assay [1] is reported as “binds”.

B3: endogenous MOV10 (2102Ep cells) (protein, UniProt Q9HCE1-1 1-1003)
chain: B2 chain
As to B3, the binding entry in assay [4] is recorded as “binds”.

B4: V5-TEV-MX1 (protein, UniProt P20591 1-662)
chain: MVVSEVDIAKADPAAASHPLLLNGDATVAQKNPGSVAENNLCSQYEEKVRPCIDLIDSLRALGVEQDLALPAIAVIGDQSSGKSSVLEALSGVALPRGSGIVTRCPLVLKLKKLVNEDKWRGKVSYQDYEIEISDASEVEKEINKAQNAIAGEGMGISHELITLEISSRDVPDLTLIDLPGITRVAVGNQPADIGYKIKTLIKKYIQRQETISLVVVPSNVDIATTEALSMAQEVDPEGDRTIGILTKPDLVDKGTEDKVVDVVRNLVFHLKKGYMIVKCRGQQEIQDQLSLSEALQREKIFFENHPYFRDLLEEGKATVPCLAEKLTSELITHICKSLPLLENQIKETHQRITEELQKYGVDIPEDENEKMFFLIDKVNAFNQDITALMQGEETVGEEDIRLFTRLRHEFHKWSTIIENNFQEGHKILSRKIQKFENQYRGRELPGFVNYRTFETIVKQQIKALEEPAVDMLHTVTDMVRLAFTDVSIKNFEEFFNLHRTAKSKIEDIRAEQEREGEKLIRLHFQMEQIVYCQDQVYRGALQKVREKELEEEKKKKSWDFGAFQSSSATDSSMEEIFQHLMAYHQEASKRISSHIPLIIQFFMLQTYGQQLQKAMLQLLQDKDTYSWLLKERSDTSDKRKFLKERLARLTQARRRLAQFPG
For B4, the values for the binding entry in assay [1], in assay [2] and in assay [3] were “binds”, “no binding (condition: with 50 μg/ml RNase)” and “binds”, respectively.

B5: DHX30(v2)-HA (protein, UniProt Q7L2E3-3 1-1155)
chain: MAASRDLLKEFPQPKNLLNSVIGRALGISHAKDKLVYVHTNGPKKKKVTLHIKWPKSVEVEGYGSKKIDAERQAAAAACQLFKGWGLLGPRNELFDAAKYRVLADRFGSPADSWWRPEPTMPPTSWRQLNPESIRPGGPGGLSRSLGREEEEDEEEELEEGTIDVTDFLSMTQQDSHAPLRDSRGSSFEMTDDDSAIRALTQFPLPKNLLAKVIQIATSSSTAKNLMQFHTVGTKTKLSTLTLLWPCPMTFVAKGRRKAEAENKAAALACKKLKSLGLVDRNNEPLTHAMYNLASLRELGETQRRPCTIQVPEPILRKIETFLNHYPVESSWIAPELRLQSDDILPLGKDSGPLSDPITGKPYVPLLEAEEVRLSQSLLELWRRRGPVWQEAPQLPVDPHRDTILNAIEQHPVVVISGDTGCGKTTRIPQLLLERYVTEGRGARCNVIITQPRRISAVSVAQRVSHELGPSLRRNVGFQVRLESKPPSRGGALLFCTVGILLRKLQSNPSLEGVSHVIVDEVHERDVNTDFLLILLKGLQRLNPALRLVLMSATGDNERFSRYFGGCPVIKVPGFMYPVKEHYLEDILAKLGKHQYLHRHRHHESEDECALDLDLVTDLVLHIDARGEPGGILCFLPGWQEIKGVQQRLQEALGMHESKYLILPVHSNIPMMDQKAIFQQPPVGVRKIVLATNIAETSITINDIVHVVDSGLHKEERYDLKTKVSCLETVWVSRANVIQRRGRAGRCQSGFAYHLFPRSRLEKMVPFQVPEILRTPLENLVLQAKIHMPEKTAVEFLSKAVDSPNIKAVDEAVILLQEIGVLDQREYLTTLGQRLAHISTDPRLAKAIVLAAIFRCLHPLLVVVSCLTRDPFSSSLQNRAEVDKVKALLSHDSGSDHLAFVRAVAGWEEVLRWQDRSSRENYLEENLLYAPSLRFIHGLIKQFSENIYEAFLVGKPSDCTLASAQCNEYSEEEELVKGVLMAGLYPNLIQVRQGKVTRQGKFKPNSVTYRTKSGNILLHKSTINREATRLRSRWLTYFMAVKSNGSVFVRDSSQVHPLAVLLLTDGDVHIRDDGRRATISLSDSDLLRLEGDSRTVRLLKELRRALGRMVERSLRSELAALPPSVQEEHGQLLALLAELLRGPCGSFDVRKTADD
For the molecule B5, the binding entry in assay [1] is listed as “binds”.
